# The supplement of paper PMC3724861
# This is one part of the list.
# Test system: T1, Caupolican (Caup) homeodomain DNA-binding domain
# T1 sequence: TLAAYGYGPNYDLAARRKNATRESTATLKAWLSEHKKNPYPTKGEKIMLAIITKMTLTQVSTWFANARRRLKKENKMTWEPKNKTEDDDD
# Assay: PBM E-score (8-mer, recovered from the published 9-mer minima) (E-score (dimensionless, -0.5 to 0.5)); Drosophila protein; higher = stronger relative binding preference, active = 0.31 or more
# How it was run: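 An enrichment score, with higher meaning stronger, expresses relative binding preference for each short DNA word. The protein used was Caup's homeodomain DNA-binding domain (residues 214-303), produced by in vitro transcription and translation and tested at 100 nM on custom-designed protein binding microarrays. The 8-mer values were recovered from published 9-mer scores, each equal to the lower of its two constituent 8-mer scores.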
row,Sequence,PBM E-score
1,GTATAGAC,inactive: 0.14
2,AGCAGGTA,inactive: 0.00539
3,CCTATGTA,active: 0.318
4,CGATGAGA,inactive: -0.0248
5,AGGGTAAC,inactive: 0.0404
6,AGATGTAC,inactive: 0.299
7,ATTATCAG,inactive: 0.0887
8,CCTGCAAC,inactive: 0.0474
9,ATACAGGC,inactive: 0.0779
10,ATTAAATA,inactive: 0.132
11,CAGCCACA,inactive: -0.0816
12,AATCGATT,inactive: 0.112
13,CCCAAGCC,inactive: -0.173
14,CTGGCACC,inactive: -0.157
15,CTGCGTAC,inactive: 0.00168
16,AGTCTCAC,inactive: -0.0687
17,CATGAACG,inactive: 0.0839
18,GGGGGCGA,inactive: -0.279
19,AATACGTA,inactive: 0.148
20,TATCTTAA,inactive: 0.1
21,ATTATCAC,inactive: 0.206
22,CCAGATGA,inactive: 0.0249
23,CACAGCAG,inactive: 0.0172

row,Sequence,PBM E-score
1,ACGGGAGC,inactive: -0.111
2,ACACGTGC,inactive: 0.181
3,CAACGGTA,inactive: -0.0573
4,ATAAGGAC,inactive: 0.0133
5,GGTGATAC,inactive: 0.0883
6,AAAAGCAG,inactive: -0.091
7,ACCGCGTC,inactive: -0.0819
8,TATCGTAA,inactive: 0.114
9,ACCGCCGC,inactive: -0.225
10,AAAGGTTA,inactive: -0.0429
11,CCGAGAGC,inactive: -0.211
12,TCTATAGA,inactive: 0.0302
13,GCGCCCAA,inactive: -0.0859
14,AAAGGAAC,inactive: 0.0554
15,GAGGCCCC,inactive: -0.337
16,AGGCCCAT,inactive: -0.246
17,CTAACCTC,inactive: -0.0639
18,CAGCTTGG,inactive: -0.067
19,ACGGGTAA,inactive: 0.075
20,GCGAAACC,inactive: 0.034
21,CACCGCAC,inactive: -0.12
22,GCATGGCA,inactive: -0.0563
23,GCCCGAGA,inactive: -0.13

row,Sequence,PBM E-score
1,CCAAGCAC,inactive: 0.0788
2,GAAACGGC,inactive: -0.0798
3,CAACTTTA,inactive: 0.0753
4,CTCGTCAC,inactive: 0.0352
5,ACTACATC,active: 0.33
6,TATCAAAA,inactive: 0.116
7,GATCACAA,inactive: 0.157
8,ATATACAA,active: ≥ 0.355
9,AACGTAGT,≥ 0.151
10,ATATGGTA,≥ 0.208
11,CACATTGA,inactive: 0.134
12,ACCCTGGC,inactive: -0.248
13,GTAAGATA,inactive: 0.128
14,CGTTGTAA,inactive: 0.261
15,GCTAAGCA,inactive: -0.0629
16,AAATAATG,inactive: 0.145
17,CCGAATAC,inactive: 0.0686
18,GGACGAAC,inactive: 0.0252
19,ATCATGCA,inactive: 0.103
20,AGAGGTTC,inactive: -0.127
21,CTCACGAG,inactive: -0.127
22,CTCAATTC,inactive: -0.0175
23,ACCATTGC,inactive: -0.0218

row,Sequence,PBM E-score
1,GCGAAACA,inactive: 0.0685
2,CGAGTTAC,inactive: 0.0872
3,GCCGGTCA,inactive: -0.114
4,GGTGTTAA,inactive: 0.18
5,AAGGCCAT,inactive: -0.0223
6,CTGCGCAC,inactive: -0.154
7,GGCCTGTA,inactive: -0.0586
8,CCTCTTGA,inactive: -0.0197
9,GTGGGGAA,inactive: -0.0668
10,AGAACCAC,inactive: 0.0098
11,ACGATCGT,inactive: 0.0282
12,GTGTGTAA,inactive: 0.275
13,TGCCAACA,≥ 0.0994
14,AAATAGAT,≥ 0.153
15,AGTTAGTG,inactive: 0.0873
16,TATCGGGA,inactive: 0.0232
17,CCGTTACA,inactive: 0.216
18,CCTGCAGC,inactive: -0.122
19,GCCGCATA,inactive: -0.107
20,TATCCATA,inactive: 0.143
21,ACTTTTGG,inactive: -0.0333
22,AAACCGTG,inactive: 0.0536
23,ATTGAAAG,inactive: 0.05

row,Sequence,PBM E-score
1,CCTGTTTC,inactive: 0.17
2,CCGAAATA,inactive: 0.0631
3,AGCAGTCA,inactive: -0.0614
4,AGGCCCAA,inactive: -0.126
5,TTATAGAA,inactive: 0.109
6,CGCCACAG,inactive: -0.0648
7,AGGTTGAA,inactive: -0.00047
8,CACGTCCC,inactive: -0.0517
9,AAGAGCTG,inactive: -0.0086
10,AAATACCG,≥ 0.0751
11,ATGTCCTA,inactive: 0.267
12,ACATCCCT,inactive: 0.191
13,TGTAGGAA,inactive: 0.115
14,AAACAAAC,inactive: 0.201
15,CTCCCAAA,inactive: -0.103
16,AAGATCTG,inactive: 0.0553
17,AAAATGGT,inactive: 0.117
18,CGCATCAA,inactive: 0.0212
19,ATATTTCA,inactive: 0.151
20,AACAAGGG,inactive: 0.278
21,AGCACCTC,inactive: -0.0781
